According to the supplement of paper PMC8728848:
This is one part of the list.

Experiments:
Assay in all cases: glycan array binding signal (z-score within array); higher = stronger binding
Conditions in all cases: glycan notation: IUPAC condensed, linker removed
[1] = target: Fuc(a1-2)Gal(b1-4)GlcNAc(b1-3)Gal(b1-4)GlcNAc(b1-2)Man(a1-3)[Fuc(a1-2)Gal(b1-4)GlcNAc(b1-3)Gal(b1-4)GlcNAc(b1-2)Man(a1-6)]Man(b1-4)GlcNAc(b1-4)GlcNAc
Summary of the method: (§1)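 Arrays were curated from the Consortium for Functional Glycomics database, 3228 in total, and kept only where the protein sequence was available. Binding is expressed as a within-array Z-score. This score was averaged across arrays of the same protein sequence at different concentrations or buffers and across linkers, and negative values can be read as non-binding.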

[2] = target: Fuc(a1-2)Gal(b1-4)GlcNAc(b1-3)Gal(b1-4)GlcNAc(b1-3)Gal(b1-4)GlcNAc
Summary of the method: as §1

[3] = target: Fuc(a1-2)Gal(b1-4)GlcNAc(b1-3)GalNAc
Summary of the method: as §1

[4] = target: Fuc(a1-2)Gal(b1-4)GlcNAc(b1-3)[Fuc(a1-2)Gal(b1-4)GlcNAc(b1-6)]GalNAc
Summary of the method: as §1

[5] = target: Fuc(a1-2)Gal(b1-4)GlcNAc(b1-3)[Fuc(a1-3)[Gal(b1-4)]GlcNAc(b1-6)]Gal(b1-4)Glc
Summary of the method: as §1

[6] = target: Fuc(a1-2)Gal(b1-4)GlcNAc(b1-6)GalNAc
Summary of the method: as §1

[7] = target: Fuc(a1-2)Gal(b1-4)GlcNAc6S
Summary of the method: as §1

[8] = target: Fuc(a1-2)Gal(b1-4)[Fuc(a1-3)]GlcNAc
Summary of the method: as §1

[9] = target: Fuc(a1-2)Gal(b1-4)[Fuc(a1-3)]GlcNAc(b1-2)Man(a1-3)[Fuc(a1-2)Gal(b1-4)[Fuc(a1-3)]GlcNAc(b1-2)Man(a1-6)]Man(b1-4)GlcNAc(b1-4)[Fuc(a1-6)]GlcNAc
Summary of the method: as §1

[10] = target: Fuc(a1-2)Gal(b1-4)[Fuc(a1-3)]GlcNAc(b1-2)[Fuc(a1-2)Gal(b1-4)[Fuc(a1-3)]GlcNAc(b1-4)]Man(a1-3)[Fuc(a1-2)Gal(b1-4)[Fuc(a1-3)]GlcNAc(b1-2)Man(a1-6)]Man(b1-4)GlcNAc(b1-4)GlcNAc
Summary of the method: as §1

[11] = target: Fuc(a1-2)Gal(b1-4)[Fuc(a1-3)]GlcNAc(b1-3)Gal(b1-4)[Fuc(a1-3)]GlcNAc
Summary of the method: as §1

[12] = target: Fuc(a1-2)Gal(b1-4)[Fuc(a1-3)]GlcNAc(b1-3)Gal(b1-4)[Fuc(a1-3)]GlcNAc(b1-3)Gal(b1-4)[Fuc(a1-3)]GlcNAc
Summary of the method: as §1

[13] = target: Fuc(a1-2)Gal(b1-4)[Fuc(a1-3)]GlcNAc(b1-3)GalNAc
Summary of the method: as §1

[14] = target: Fuc(a1-2)Gal(b1-4)[Fuc(a1-3)]GlcNAc(b1-3)[Neu5Ac(a2-6)Gal(b1-4)GlcNAc(b1-6)]Gal(b1-4)Glc
Summary of the method: as §1

[15] = target: Fuc(a1-2)Gal3S(b1-4)GlcNAc
Summary of the method: as §1

[16] = target: Fuc(a1-2)Gal6S(b1-3)GlcNAc
Summary of the method: as §1

[17] = target: Fuc(a1-2)Gal6S(b1-3)GlcNAc6S
Summary of the method: as §1

Fuc(a1-2)Gal6S(b1-4)Glc = target: Fuc(a1-2)Gal6S(b1-4)Glc
Summary of the method: as §1

[18] = target: Fuc(a1-2)Gal6S(b1-4)Glc6S
Summary of the method: as §1

Fuc(a1-2)GlcNAc = target: Fuc(a1-2)GlcNAc
Summary of the method: as §1

Fuc(a1-2)[Gal(a1-3)]Gal = target: Fuc(a1-2)[Gal(a1-3)]Gal
Summary of the method: as §1

[19] = target: Fuc(a1-2)[Gal(a1-3)]Gal(b1-3)GalNAc
Summary of the method: as §1

[20] = target: Fuc(a1-2)[Gal(a1-3)]Gal(b1-3)GalNAc(b1-3)Gal(a1-4)Gal(b1-4)Glc
Summary of the method: as §1

[21] = target: Fuc(a1-2)[Gal(a1-3)]Gal(b1-3)GlcNAc
Summary of the method: as §1

[22] = target: Fuc(a1-2)[Gal(a1-3)]Gal(b1-3)GlcNAc(b1-2)Man(a1-3)[Fuc(a1-2)[Gal(a1-3)]Gal(b1-3)GlcNAc(b1-2)Man(a1-6)]Man(b1-4)GlcNAc(b1-4)GlcNAc
Summary of the method: as §1

[23] = target: Fuc(a1-2)[Gal(a1-3)]Gal(b1-3)GlcNAc(b1-2)Man(a1-3)[Fuc(a1-2)[Gal(a1-3)]Gal(b1-3)GlcNAc(b1-2)Man(a1-6)]Man(b1-4)GlcNAc(b1-4)[Fuc(a1-6)]GlcNAc
Summary of the method: as §1

[24] = target: Fuc(a1-2)[Gal(a1-3)]Gal(b1-3)GlcNAc(b1-3)GalNAc
Summary of the method: as §1

[25] = target: Fuc(a1-2)[Gal(a1-3)]Gal(b1-3)GlcNAc(b1-6)GalNAc
Summary of the method: as §1

[26] = target: Fuc(a1-2)[Gal(a1-3)]Gal(b1-4)Glc
Summary of the method: as §1

[27] = target: Fuc(a1-2)[Gal(a1-3)]Gal(b1-4)GlcNAc
Summary of the method: as §1

B1: Jacalin (Artocarpus integrifolia) (protein)
chain: MAYSSLLSLSVLALLFSISSADTRKWFLANGINQNPIGIIEAAVGVSEDLLNLNGMEAKNDEQSGISQTVIVGPWGAKVSTSSNGKAFDDGAFTGIREINLSYNKETAIGDFQVVYDLNGSPYVGQNHKSFITGFTPVKISLDFPSEYIMEVSGYTGNVSGYVVVRSLTFKTNKKTYGPYGVTSGTPFNLPIENGLIVGFKGSIGYWLDYFSMYLSL
glycan array binding signal (z-score) [1]: -0.199 | glycan array binding signal (z-score) [2]: -0.264 | glycan array binding signal (z-score) [3]: 0.829 | glycan array binding signal (z-score) [4]: -0.232 | glycan array binding signal (z-score) [5]: -0.249 | glycan array binding signal (z-score) [6]: -0.164 | glycan array binding signal (z-score) [7]: -0.237 | glycan array binding signal (z-score) [8]: -0.259 | glycan array binding signal (z-score) [9]: -0.224 | glycan array binding signal (z-score) [10]: -0.131 | glycan array binding signal (z-score) [11]: -0.265 | glycan array binding signal (z-score) [12]: -0.243 | glycan array binding signal (z-score) [13]: -0.131 | glycan array binding signal (z-score) [14]: -0.259 | glycan array binding signal (z-score) [15]: -0.25 | glycan array binding signal (z-score) [16]: -0.278 | glycan array binding signal (z-score) [17]: -0.152 | glycan array binding signal (z-score) (Fuc(a1-2)Gal6S(b1-4)Glc): -0.268 | glycan array binding signal (z-score) [18]: -0.226 | glycan array binding signal (z-score) (Fuc(a1-2)GlcNAc): -0.337 | glycan array binding signal (z-score) (Fuc(a1-2)[Gal(a1-3)]Gal): -0.258 | glycan array binding signal (z-score) [19]: -0.142 | glycan array binding signal (z-score) [20]: -0.088 | glycan array binding signal (z-score) [21]: -0.189 | glycan array binding signal (z-score) [22]: -0.267 | glycan array binding signal (z-score) [23]: -0.249 | glycan array binding signal (z-score) [24]: 0.344 | glycan array binding signal (z-score) [25]: -0.265 | glycan array binding signal (z-score) [26]: -0.273 | glycan array binding signal (z-score) [27]: -0.273
